{
  "source": "PubChem BioAssay AID1468",
  "about": "(National Center for Advancing Translational Sciences (NCATS), 2008)",
  "note": "Where “and” joins values, the source holds several entries; their conditions need not be identical. Equal values may be shown once. The campaign covered roughly 280,000 compounds. About 1,100 (0.39%) were called active. The inconclusive results got no clear call from the source; some entries with a clear call stand among them for comparison. Calls come from the whole dose curve; as a rule, active = well fitted inhibition curve with a large enough effect; inconclusive = small, poorly fitted or top-dose-only effect, or effect the other way; inactive = flat fitted curve, though single readings scatter. Potencies beside an inconclusive call are fits to weak or partial responses and may not hold up. Potency is the fitted concentration of half-maximal effect; tags give direction and shape of the fitted curve.",
  "data": [
    {"biological_target": "Microtubule-associated protein tau (Homo sapiens) (UniProt P10636)", "sequence (P10636 whole entry, looked up)": "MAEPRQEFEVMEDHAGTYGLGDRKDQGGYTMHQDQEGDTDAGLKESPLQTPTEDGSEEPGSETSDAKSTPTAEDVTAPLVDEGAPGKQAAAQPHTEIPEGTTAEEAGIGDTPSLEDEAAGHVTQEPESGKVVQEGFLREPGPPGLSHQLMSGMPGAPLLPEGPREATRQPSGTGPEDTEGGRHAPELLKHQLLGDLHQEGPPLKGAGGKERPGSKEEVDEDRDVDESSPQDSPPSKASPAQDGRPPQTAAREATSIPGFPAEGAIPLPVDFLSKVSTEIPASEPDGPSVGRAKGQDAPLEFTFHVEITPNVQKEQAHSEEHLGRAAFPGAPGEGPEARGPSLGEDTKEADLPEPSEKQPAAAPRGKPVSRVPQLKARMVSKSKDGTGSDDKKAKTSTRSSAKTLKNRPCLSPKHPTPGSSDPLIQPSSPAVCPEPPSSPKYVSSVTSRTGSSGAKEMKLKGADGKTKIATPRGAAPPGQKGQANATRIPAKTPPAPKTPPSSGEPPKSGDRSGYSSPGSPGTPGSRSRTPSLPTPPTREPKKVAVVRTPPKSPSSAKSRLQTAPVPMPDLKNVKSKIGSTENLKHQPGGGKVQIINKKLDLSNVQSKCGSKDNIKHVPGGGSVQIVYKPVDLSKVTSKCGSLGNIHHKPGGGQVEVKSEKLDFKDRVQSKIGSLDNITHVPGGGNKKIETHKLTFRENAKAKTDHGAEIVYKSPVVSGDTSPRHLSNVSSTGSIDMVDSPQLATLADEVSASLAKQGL", "assay": "qHTS for Inhibitors of Tau Fibril Formation, Fluorescence Polarization; note: nearly all actives have a fitted effect of over 55% in size", "settings": "K18 P301L tau heparin fibrillization, Alexa594 FP, 6 h; series mostly up to 57.7 µM", "in_short": "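Steps: dispense K18 P301L tau (15 uM plus 0.24 uM Alexa 594 tracer, final) in pH 7 sodium acetate; add compound; add heparin (20 uM final); incubate 6 hr, 37 C; add ThT (30 uM final); after 1 hr ambient, read FP.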", "values": [
      {"compound": "Nc1c(C(=O)Nc2ccc(Cl)c(C(F)(F)F)c2)sc2nc3c(cc12)N1CCC3CC1", "Potency": "inconclusive: 5.01 µM [activator, single point]"},
      {"compound": "O=C1NC(=O)C2(Cc3ccccc3N3CCCC32)C(=O)N1c1ccccc1", "note": "(stereo not drawn)", "Potency": "inconclusive: 39.8 µM [inhibitor, single point]"},
      {"compound": "CN1C(=O)C(=Cc2ccc(OCCN(C)c3ccccn3)cc2)C(=O)N(C)C1=O", "Potency": "inconclusive: 12.6 µM [inhibitor, partial curve]"},
      {"compound": "O=[N+]([O-])c1ccccc1CNCCc1ccc(F)cc1", "Potency": "inactive"},
      {"compound": "O=C(N=Nc1c(O)[nH]c(=O)[nH]c1=O)C1COc2ccccc2O1", "note": "(stereo not drawn)", "Potency": "inconclusive: 20 µM [inhibitor, partial curve]"},
      {"compound": "CC(=O)Nc1ccc(S(=O)(=O)N2CCSC2c2ccc(C)cc2)cc1", "note": "(stereo not drawn)", "Potency": "inconclusive: 20 µM [inhibitor, partial curve]"},
      {"compound": "Oc1ccc(Cl)cc1Cc1cc(Cl)ccc1O", "Potency": "inconclusive: 25.1 µM [inhibitor, single point]"},
      {"compound": "O=c1[nH]c(=O)n(Cc2ccco2)c(O)c1C=NCc1ccco1", "Potency": "inactive"},
      {"compound": "Cc1cc(C)n(-c2ccc([N+](=O)[O-])cc2)n1", "Potency": "inconclusive: 44.7 µM [activator, single point]"},
      {"compound": "NNc1n[nH]c(=S)n1N", "Potency": "inconclusive: 5.62 µM [inhibitor, partial curve, poor fit]"},
      {"compound": "COc1ccc(-n2c(-c3ccco3)nc3c(cnn3-c3ccc(Cl)cc3)c2=O)cc1", "Potency": "inconclusive: 11.2 µM [inhibitor, partial curve]"},
      {"compound": "C[C@H]1COC2=C1C(=O)C(=O)c1c2ccc2c1CCCC2(C)C", "Potency": "inconclusive: 0.891 µM [inhibitor, single point]"},
      {"compound": "C/C(O)=C(\\C#N)C(=O)Nc1cc(Br)ccc1Br", "Potency": "inactive"},
      {"compound": "Oc1ccc2c3c1O[C@H]1[C@@H](O)CC[C@@]4(O)C(C2)N(CC2CCC2)CCC314", "note": "(stereo partly drawn)", "Potency": "inactive"},
      {"compound": "O=c1c2ccccc2nc2n1CCS2(=O)=O", "Potency": "inconclusive: 8.91 µM [inhibitor, partial curve]"},
      {"compound": "COCCN1C(=O)NC(=O)/C(=C\\c2ccc(Br)cc2)C1=O", "Potency": "inconclusive: 12.6 µM [inhibitor, partial curve]"},
      {"compound": "C=CCN1C(=O)NC(=O)/C(=C/c2cc3c4c(c2)CCCN4CCC3)C1=O", "Potency": "inconclusive: 31.6 µM [inhibitor, partial curve]"},
      {"compound": "O=C(c1cccc([N+](=O)[O-])c1)C12CN3CN(CN(C3)C1)C2", "Potency": "inactive"},
      {"compound": "COc1ccc2oc(=O)c(C(=O)NCCc3c(C)[nH]c4ccc(F)cc34)cc2c1", "Potency": "inconclusive: 14.1 µM [activator, partial curve]"},
      {"compound": "CN1C(=O)/C(=C/C=C/c2ccco2)C(=O)NC1=S", "Potency": "inconclusive: 35.5 µM [inhibitor, single point]"},
      {"compound": "O=C(N/N=C\\c1ccc(COc2ccc([N+](=O)[O-])cc2)o1)c1cccc(Cl)c1", "Potency": "inconclusive: 17.8 µM [inhibitor, partial curve, poor fit]"},
      {"compound": "COc1ccc(N2C(=O)CS(=O)C(c3ccccc3)C2=O)cc1", "note": "(stereo not drawn)", "Potency": "inconclusive: 20 µM [inhibitor, partial curve, poor fit]"},
      {"compound": "O=C1NC(=O)C(=Cc2cc3c(cc2[N+](=O)[O-])OCO3)C(=O)N1", "Potency": "active: 28.2 µM"},
      {"compound": "CN1CCN(c2ccc(N)c(N3CCN(C)CC3)c2)CC1", "Potency": "inconclusive: 20 µM [inhibitor, partial curve]"},
      {"compound": "COC(=O)c1cc(NC(=O)Cn2nc(-c3ccccc3)c3c(c2=O)CCCC3)cc(C(=O)OC)c1", "Potency": "inconclusive: 39.8 µM [inhibitor, single point]"},
      {"compound": "O=C1NC(=O)C(=Cc2ccc(OCC(=O)N3CCOCC3)cc2)C(=O)N1", "Potency": "inconclusive: 20 µM [inhibitor, partial curve, poor fit]"},
      {"compound": "CCCNC(=O)c1c(N)n(CC2CCCO2)c2nc3ccccc3nc12", "note": "(stereo not drawn)", "Potency": "inconclusive: 22.4 µM [inhibitor, partial curve]"},
      {"compound": "CCCCC/C=C\\C/C=C\\C/C=C\\C/C=C\\CCCC(=O)NCc1ccoc1", "Potency": "inconclusive: 28.2 µM [inhibitor, single point]"},
      {"compound": "Cc1ccccc1C(=O)NNC(=S)NC(=O)COc1ccccc1", "Potency": "inconclusive: 39.8 µM [inhibitor, single point]"},
      {"compound": "Cc1onc(-c2c(Cl)cccc2Cl)c1C(=O)Nc1ccc2c(C(F)(F)F)cc(=O)oc2c1", "Potency": "inconclusive: 39.8 µM [inhibitor, partial curve]"},
      {"compound": "COc1ccc([N+](=O)[O-])cc1N=Cc1c(O)n(CCc2ccccc2)c(=O)n(C(C)C)c1=O", "Potency": "inconclusive: 14.1 µM [activator, partial curve, poor fit]"},
      {"compound": "C/C=C/C/C=C/CCC(=O)[C@H]1O[C@H]1C(N)=O", "Potency": "inconclusive: 17.8 µM [inhibitor, single point]"},
      {"compound": "O=C1N=c2ccccc2=C/C1=C\\c1c(O)[nH]c(=S)[nH]c1=O", "Potency": "inconclusive: 35.5 µM [inhibitor, single point]"},
      {"compound": "CCC1(C)CC(C(N)=S)CCO1", "note": "(stereo not drawn)", "Potency": "inconclusive: 17.8 µM [inhibitor, partial curve]"},
      {"compound": "CC(C)c1ccc(N2C(=O)NC(=O)/C(=C/C=C/c3ccco3)C2=O)cc1", "Potency": "active: 14.1 µM"},
      {"compound": "C[C@@H](N)[C@@H](O)c1ccc(O)c(O)c1", "Potency": "inconclusive: 3.55 µM [inhibitor, full curve]"},
      {"compound": "CC(=O)Nc1cc([As](=O)(O)O)ccc1O", "Potency": "inactive"},
      {"compound": "COc1ccc(OC)c(NC(=O)Cn2cc(C(=O)c3ccccc3F)c3ccccc32)c1", "Potency": "inconclusive: 39.8 µM [inhibitor, single point]"},
      {"compound": "O=C(Cn1c(=O)oc2cc(S(=O)(=O)N3CCCC3)ccc21)Nc1cccc(C(F)(F)F)c1", "Potency": "inconclusive: 14.1 µM [inhibitor, partial curve]"},
      {"compound": "CC(=O)[O][Hg][c]1ccccc1", "Potency": "inconclusive: 39.8 µM [inhibitor, single point]"},
      {"compound": "O=C1NC(=O)N(CCc2ccc(F)cc2)C(=O)/C1=C/C=C/c1ccccc1", "Potency": "inconclusive: 7.94 µM [inhibitor, partial curve]"},
      {"compound": "CCCCC/C=C\\C/C=C\\C/C=C\\C/C=C\\CCCC(=O)O", "Potency": "inconclusive: 14.1 µM [inhibitor, partial curve] and inconclusive: 31.6 µM [inhibitor, partial curve]"},
      {"compound": "CC(C)c1ccc(NC(=O)c2ccc3c(c2)CCN3S(=O)(=O)c2ccccc2)cc1", "Potency": "inconclusive: 28.2 µM [inhibitor, single point]"},
      {"compound": "CC12C=CC(=O)C=C1CCC1C2=CCC2(C)C1CC[C@@H]2C(=O)CN1CCN(c2cc(N3CCCC3)nc(N3CCCC3)n2)CC1", "note": "(stereo partly drawn)", "Potency": "inconclusive: 2.82 µM [inhibitor, partial curve, poor fit]"},
      {"compound": "CCCOc1ccc(N2C(=O)CC(N3CC=C(c4ccccc4)CC3)C2=O)cc1", "note": "(stereo not drawn)", "Potency": "inconclusive: 39.8 µM [inhibitor, single point]"},
      {"compound": "Cc1ccc(-n2nc(C)c3c2NC(=O)CSC3c2ccc3c(c2)OCO3)cc1", "note": "(stereo not drawn)", "Potency": "inconclusive: 44.7 µM [inhibitor, single point]"},
      {"compound": "O=C(COc1ccc(Cl)cc1)Nc1ccc(Cl)cc1C(=O)c1ccccc1", "Potency": "inactive"},
      {"compound": "C=CCN1C(=O)/C(=C/c2cccs2)C(=O)NC1=S", "Potency": "inactive"},
      {"compound": "Cc1cc(C)c(Cn2c3ccccc3c3cnn(CC(=O)NCc4ccc(Cl)cc4)c(=O)c32)c(C)c1", "Potency": "inconclusive: 0.0251 µM [inhibitor, full curve, poor fit]"},
      {"compound": "Cc1nnc(NC(=O)c2cccn(Cc3ccccc3F)c2=O)s1", "Potency": "inconclusive: 2.82 µM [inhibitor, single point]"},
      {"compound": "CCc1ccc(N2NC(=O)/C(=C/C=C/c3ccco3)C2=O)cc1", "Potency": "inconclusive: 12.6 µM [inhibitor, partial curve]"},
      {"compound": "CCOc1ccc(N2C(=O)/C(=C\\c3cccs3)C(=O)NC2=S)cc1", "Potency": "inconclusive: 44.7 µM [activator, single point]"},
      {"compound": "C=C1[C@@H](O)C2C=CC[C@H](C)C(=O)[C@@](C)(O)C=C[C@@H](OC(C)=O)[C@@]23C(=O)N[C@H](Cc2ccccc2)[C@@H]3[C@@H]1C", "note": "(stereo partly drawn)", "Potency": "inconclusive: 0.316 µM [inhibitor, partial curve]"},
      {"compound": "Cc1ccc(-c2nnc(Nc3ccc(OC(F)(F)Cl)cc3)c3ccccc23)cc1S(=O)(=O)NC(C)(C)CO", "Potency": "inconclusive: 20 µM [inhibitor, partial curve]"},
      {"compound": "C#CC(C)(CC)NC(=O)Cn1nnc(-c2ccc(OCc3ccccc3C)cc2)n1", "note": "(stereo not drawn)", "Potency": "inconclusive: 15.8 µM [inhibitor, single point]"},
      {"compound": "CCC(=O)OC1CCC2C3CCc4cc(O)ccc4C3CC[C@]12C", "note": "(stereo partly drawn)", "Potency": "inconclusive: 31.6 µM [inhibitor, single point]"},
      {"compound": "COc1ccc(NC(=O)CSc2nc(-c3cccs3)cc(C(F)(F)F)n2)cc1Cl", "Potency": "inconclusive: 10 µM [inhibitor, partial curve]"},
      {"compound": "CCn1c(N)c(C(=O)NC)sc1=S", "Potency": "inconclusive: 35.5 µM [inhibitor, single point]"},
      {"compound": "c1ccc2c(CCNCc3ccc4c(c3)OCO4)c[nH]c2c1", "Potency": "inactive"},
      {"compound": "Cc1cccc(N2C(=O)NC(=O)/C(=C\\c3cc(C)n(-c4sc5c(c4C#N)CCCC5)c3C)C2=O)c1C", "Potency": "inconclusive: 44.7 µM [inhibitor, single point]"},
      {"compound": "COc1cc2occc2c2oc(=O)ccc12", "Potency": "inconclusive: 0.126 µM [inhibitor, full curve, poor fit]"},
      {"compound": "CCOC(=O)c1c(-n2c(C)cc(C=C3C(=O)NC(=O)NC3=O)c2C)sc2c1CCCC2", "Potency": "inactive"},
      {"compound": "CCCSc1nc2ccccc2c(=O)n1-c1ccccc1OC", "Potency": "inactive"}
    ]}
  ]
}
